# Measured values as given in a compilation of properties of binary mixtures (doi:10.1080/00319104.2013.782546).
# The densities may have been worked out from excess volumes.
# Experiment: xn = mol fraction of the nth substance listed
# Conditions: 283.15 K, 101 kPa
compound,measurement,setting,value
CC[n+]1cccc(C)c1.O=S(=O)([N-]S(=O)(=O)C(F)(F)F)C(F)(F)F + CCc1ccccc1,mass density,x2 = 0,1503.1 kg/m3
same,mass density,x2 = 0.049,1489.4 kg/m3
same,mass density,x2 = 0.1028,1473.6 kg/m3
same,mass density,x2 = 0.2985,1406 kg/m3
same,mass density,x2 = 0.4474,1340.8 kg/m3
same,mass density,x2 = 0.535,1295.1 kg/m3
same,mass density,x2 = 0.5737,1272.8 kg/m3
CC[n+]1ccn(C)c1.O=S(=O)([N-]S(=O)(=O)C(F)(F)F)C(F)(F)F + Cc1ccccc1C,mass density,x2 = 0,1534 kg/m3
same,mass density,x2 = 0.052,1518.7 kg/m3
same,mass density,x2 = 0.1008,1503.8 kg/m3
same,mass density,x2 = 0.1995,1470.6 kg/m3
same,mass density,x2 = 0.3002,1432.1 kg/m3
same,mass density,x2 = 0.5055,1334.3 kg/m3
same,mass density,x2 = 0.5062,1333.7 kg/m3
same,mass density,x2 = 0.5929,1283.1 kg/m3
Cc1ccccc1C + CC[n+]1cccc(C)c1.O=S(=O)([N-]S(=O)(=O)C(F)(F)F)C(F)(F)F,mass density,x1 = 1,888.1 kg/m3
CCCCCC[n+]1ccn(C)c1.O=S(=O)([N-]S(=O)(=O)C(F)(F)F)C(F)(F)F + Cc1cccc(C)c1,mass density,x2 = 0,1385.9 kg/m3
same,mass density,x2 = 0.0548,1375.9 kg/m3
same,mass density,x2 = 0.1031,1366.2 kg/m3
same,mass density,x2 = 0.3078,1316.4 kg/m3
same,mass density,x2 = 0.6095,1204.3 kg/m3
same,mass density,x2 = 0.7329,1132.6 kg/m3
Cc1ccccc1 + CC[n+]1ccn(C)c1.O=S(=O)([N-]S(=O)(=O)C(F)(F)F)C(F)(F)F,mass density,x1 = 1,876.1 kg/m3
CC[n+]1cccc(C)c1.O=S(=O)([N-]S(=O)(=O)C(F)(F)F)C(F)(F)F + Cc1ccccc1C,mass density,x2 = 0,1503.1 kg/m3
same,mass density,x2 = 0.051,1490 kg/m3
same,mass density,x2 = 0.1001,1476.4 kg/m3
same,mass density,x2 = 0.1983,1446.7 kg/m3
same,mass density,x2 = 0.2975,1412.5 kg/m3
same,mass density,x2 = 0.4008,1370.8 kg/m3
same,mass density,x2 = 0.5039,1322.7 kg/m3
same,mass density,x2 = 0.6025,1268.4 kg/m3
CC[n+]1ccn(C)c1.O=S(=O)([N-]S(=O)(=O)C(F)(F)F)C(F)(F)F + Cc1cccc(C)c1,mass density,x2 = 0.0473,1519.6 kg/m3
same,mass density,x2 = 0.0479,1519.6 kg/m3
same,mass density,x2 = 0.1005,1502.6 kg/m3
same,mass density,x2 = 0.1992,1467.9 kg/m3
same,mass density,x2 = 0.3004,1427.9 kg/m3
same,mass density,x2 = 0.3968,1384.8 kg/m3
same,mass density,x2 = 0.42,1373.2 kg/m3
same,mass density,x2 = 0.462,1351.8 kg/m3
CC[n+]1cccc(C)c1.O=S(=O)([N-]S(=O)(=O)C(F)(F)F)C(F)(F)F + Cc1ccccc1,mass density,x2 = 0,1503.1 kg/m3
same,mass density,x2 = 0.0484,1492.1 kg/m3
same,mass density,x2 = 0.1002,1479.5 kg/m3
same,mass density,x2 = 0.2005,1452 kg/m3
same,mass density,x2 = 0.4093,1379.8 kg/m3
same,mass density,x2 = 0.4915,1344.2 kg/m3
same,mass density,x2 = 0.6565,1250.5 kg/m3
same,mass density,x2 = 0.6882,1228.4 kg/m3
same,mass density,x2 = 0.7161,1207.6 kg/m3
CCOS(=O)(=O)[O-].CC[n+]1cccc(C)c1 + Cc1ccc(C)cc1,mass density,x2 = 0,1230.7 kg/m3
same,mass density,x2 = 0.0494,1221.4 kg/m3
same,mass density,x2 = 0.1138,1208.2 kg/m3
same,mass density,x2 = 0.1401,1202.8 kg/m3
same,mass density,x2 = 0.1696,1196.6 kg/m3
same,mass density,x2 = 0.187,1192.6 kg/m3
same,mass density,x2 = 0.1972,1190.4 kg/m3
c1ccccc1 + CCCCCC[n+]1ccn(C)c1.O=S(=O)([N-]S(=O)(=O)C(F)(F)F)C(F)(F)F,mass density,x1 = 1,889.6 kg/m3
CCCCCC[n+]1ccn(C)c1.O=S(=O)([N-]S(=O)(=O)C(F)(F)F)C(F)(F)F + CCc1ccccc1,mass density,x2 = 0.0514,1375.9 kg/m3
same,mass density,x2 = 0.1003,1366.3 kg/m3
same,mass density,x2 = 0.2108,1340.9 kg/m3
same,mass density,x2 = 0.3061,1316.2 kg/m3
same,mass density,x2 = 0.5009,1250.2 kg/m3
same,mass density,x2 = 0.6594,1175.8 kg/m3
same,mass density,x2 = 0.6754,1166.8 kg/m3
CCOS(=O)(=O)[O-].CC[n+]1cccc(C)c1 + Cc1cccc(C)c1,mass density,x2 = 0.0505,1220.9 kg/m3
same,mass density,x2 = 0.1027,1210.2 kg/m3
same,mass density,x2 = 0.1213,1206.5 kg/m3
same,mass density,x2 = 0.1433,1202.2 kg/m3
same,mass density,x2 = 0.1631,1197.8 kg/m3
same,mass density,x2 = 0.1962,1192.6 kg/m3
same,mass density,x2 = 0.2016,1191.4 kg/m3
CCC[n+]1cccc(C)c1.O=S(=O)([N-]S(=O)(=O)C(F)(F)F)C(F)(F)F + c1ccccc1,mass density,x2 = 0,1461.7 kg/m3
same,mass density,x2 = 0.0999,1444.2 kg/m3
same,mass density,x2 = 0.1999,1424.1 kg/m3
same,mass density,x2 = 0.2994,1400.7 kg/m3
same,mass density,x2 = 0.3991,1372.5 kg/m3
same,mass density,x2 = 0.5139,1332.6 kg/m3
same,mass density,x2 = 0.6107,1288.7 kg/m3
same,mass density,x2 = 0.7003,1236.9 kg/m3
same,mass density,x2 = 0.7273,1218.3 kg/m3
same,mass density,x2 = 0.7395,1209.1 kg/m3
same,mass density,x2 = 0.7492,1202.4 kg/m3
same,mass density,x2 = 0.7847,1173.1 kg/m3
same,mass density,x2 = 0.7959,1163.1 kg/m3
CCC[n+]1cccc(C)c1.O=S(=O)([N-]S(=O)(=O)C(F)(F)F)C(F)(F)F + Cc1cccc(C)c1,mass density,x2 = 0,1461.7 kg/m3
same,mass density,x2 = 0.0566,1448.3 kg/m3
same,mass density,x2 = 0.1978,1410.1 kg/m3
same,mass density,x2 = 0.3051,1375.9 kg/m3
same,mass density,x2 = 0.4105,1335.9 kg/m3
same,mass density,x2 = 0.5066,1293.2 kg/m3
same,mass density,x2 = 0.6313,1224.7 kg/m3
Cc1cccc(C)c1 + CCOS(=O)(=O)[O-].CC[n+]1cccc(C)c1,mass density,x1 = 1,872.7 kg/m3
CC[n+]1cccc(C)c1.O=S(=O)([N-]S(=O)(=O)C(F)(F)F)C(F)(F)F + Cc1ccc(C)cc1,mass density,x2 = 0,1503.1 kg/m3
same,mass density,x2 = 0.0509,1489.4 kg/m3
same,mass density,x2 = 0.1039,1473.9 kg/m3
same,mass density,x2 = 0.3013,1408 kg/m3
same,mass density,x2 = 0.4029,1366.2 kg/m3
same,mass density,x2 = 0.5037,1316.2 kg/m3
same,mass density,x2 = 0.5268,1303.7 kg/m3
CCC[n+]1cccc(C)c1.O=S(=O)([N-]S(=O)(=O)C(F)(F)F)C(F)(F)F + Cc1ccccc1,mass density,x2 = 0,1461.7 kg/m3
same,mass density,x2 = 0.1,1440.3 kg/m3
same,mass density,x2 = 0.1979,1417 kg/m3
same,mass density,x2 = 0.5118,1310.5 kg/m3
same,mass density,x2 = 0.6041,1264.5 kg/m3
same,mass density,x2 = 0.6579,1233.4 kg/m3
same,mass density,x2 = 0.6846,1216.2 kg/m3
same,mass density,x2 = 0.7178,1193.1 kg/m3
